Measurements: PubChem BioAssay AID2147 (National Center for Advancing Translational Sciences (NCATS), 2009)
Hit rate of the full screen: of about 230,000 compounds, about 3,600 (1.6%) were called active. The inconclusive results got no clear call from the source; some entries with a clear call stand among them for comparison. Calls come from the whole dose curve; as a rule, active = well fitted inhibition curve with a large enough effect (not every such curve was filed as active); inconclusive = small, poorly fitted or top-dose-only effect, or another doubt; inactive = no such curve, though single readings can be large or run the other way. Potencies of inconclusive entries are doubtful fits and often do not repeat.

Biological target: Lysine-specific demethylase 4E (Homo sapiens) (UniProt B2RXH2)
Assay: qHTS Assay for Inhibitors of Human Jumonji Domain Containing 2E (JMJD2E)
Conditions: JMJD2E catalytic domain, FDH-coupled NADH fluorescence (FDH is formaldehyde dehydrogenase); series mostly up to 57.1 µM; activity change, negative = inhibition: at the top concentration
Note: nearly all actives have a fitted effect of over 50% in size.
Potency is the fitted concentration of half-maximal effect; tags give direction and shape of the fitted curve.
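Throughout, for activity change, negative = inhibition: 0% = wells with enzyme and -100% = buffer wells without enzyme.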

UniProt B2RXH2, sequence (B2RXH2 whole entry, looked up, the tested form may be a part): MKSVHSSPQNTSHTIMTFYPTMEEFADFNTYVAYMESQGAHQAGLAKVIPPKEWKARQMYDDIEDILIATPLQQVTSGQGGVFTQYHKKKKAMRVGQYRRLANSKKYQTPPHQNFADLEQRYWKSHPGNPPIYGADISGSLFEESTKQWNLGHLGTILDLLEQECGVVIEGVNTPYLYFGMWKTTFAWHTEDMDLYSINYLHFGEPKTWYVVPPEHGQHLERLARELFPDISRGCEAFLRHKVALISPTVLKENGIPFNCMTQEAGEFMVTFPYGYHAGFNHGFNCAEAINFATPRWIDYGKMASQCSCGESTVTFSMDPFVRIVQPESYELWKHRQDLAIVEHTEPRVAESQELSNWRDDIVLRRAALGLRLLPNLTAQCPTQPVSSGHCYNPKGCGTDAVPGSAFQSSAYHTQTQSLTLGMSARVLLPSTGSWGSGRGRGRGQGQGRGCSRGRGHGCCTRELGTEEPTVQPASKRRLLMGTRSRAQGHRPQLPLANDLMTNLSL

SMILES | Potency | activity change, negative = inhibition
Cc1ccc2nc(-c3ccc(NS(=O)(=O)c4ccc(F)cc4)cc3)sc2c1 | inconclusive: 14.1 µM [inhibitor, partial curve] | 
COc1ccc2c(c1)OC1(O)COc3cc(OC)c(OC)cc3C1=C2 (stereo not drawn) | inconclusive: 22.4 µM [inhibitor, partial curve] | 
O=C(NC1CCCC1)c1cnn2c(C(F)(F)F)cc(-c3ccco3)nc12 | inconclusive: 28.2 µM [inhibitor, single point] | 
CC(C)c1ccc(-c2c(C#N)c(N)nc(SCC(=O)N3CCCCCC3)c2C#N)cc1 | inconclusive: 35.5 µM [inhibitor, single point] | 
CN(C)c1nc(-c2ccccc2)c2cnn(Cc3ccccc3)c2n1 | inconclusive: 31.6 µM [inhibitor, partial curve] | 
COC(=O)c1ccccc1NC(=O)CCS(=O)(=O)c1ccc(Br)cc1 | inconclusive: 39.8 µM [inhibitor, single point] | 
CN=c1scc(C)n1/N=C/c1cc(Br)c(O)c(Br)c1 | inconclusive: 35.5 µM [inhibitor, single point] | 
Cc1ccc(S(=O)(=O)Nc2ccccc2C(=O)NCc2cccnc2)cc1 | inconclusive: 28.2 µM [inhibitor, partial curve] | 
N=C1C(c2nc3ccccc3s2)=C(O)CN1Cc1ccco1 | inconclusive: 28.2 µM [inhibitor, single point] | 
C#CCOCCOCCOCCNc1nc(N2CCN(C(=O)[C@H](CCCCN)n3cc(C(N)CO)nn3)CC2)nc(N2CCN(C(=O)[C@H](CCC(=O)O)n3cc(C(N)[C@H](C)CC)nn3)CC2)n1 (stereo partly drawn) |  | inactive: -11.8%
Cc1cc(=O)[nH]c(N/N=C2/CCCC/C2=C\c2ccccc2)n1 | inconclusive: 15.8 µM [inhibitor, single point] | 
O=C(CSc1nnc(Cc2ccccc2)o1)Nc1ccccc1 | inconclusive: 28.2 µM [inhibitor, single point] | 
Cc1ccc(-n2nc(C)c3c2NC2=C(C(=O)CC(C)(C)C2)C3c2ccccc2OCC(=O)O)cc1 (stereo not drawn) | inconclusive: 31.6 µM [inhibitor, partial curve] | 
Cn1cnnc1SCC(=O)c1ccc2c(c1)CCCC2 |  | inactive: -8.33%
CC(=O)NN1C(=O)c2ccccc2NC1c1ccoc1 (stereo not drawn) | inconclusive: 28.2 µM [inhibitor, partial curve] | 
COc1ccc2c(c1)OC/C(=C\c1ccc(OC)c(O)c1)C2=O | active: 20 µM | 
Cc1c(N=Cc2cccs2)c(=O)n(-c2ccccc2)n1C | inconclusive: 39.8 µM [inhibitor, single point] | 
COC(=O)Nc1ccc(S(=O)(=O)N2CCCC(C(=O)N3CCCCC3)C2)cc1 (stereo not drawn) | inconclusive: 39.8 µM [inhibitor, single point] | 
